Read counts are not given, so values of variants with three or more changes are uncertain.

The labels stand for the following.
B1: LINE1-mini (parent)
chain: GGCAGAGCUCAACACAGCGUGGCAAAGUGGCUGUGGCUAGACUGCC

This data set covers variants of B1. Put plainly: self-cleavage, relative activity (ratio to wild type); higher = more cleavage; in vitro, sequencing; the parent is a self-cleaving ribozyme.
On to C3G G7U G17U, for which the self-cleavage came to 0.31.

For the variant C3G A26G G30A, the self-cleavage was found to be 0.64.

As to C3G U9G A11G, the self-cleavage was determined as 0.18.

C3G G22U A25U C31U: the self-cleavage was determined as 0.03.

For the variant C3A G36U C45G, the self-cleavage is 0.81.

As to C3G C8A C13G A26U C31U C42A, the self-cleavage is 0.26.

For the variant C3G G21U A41C, the self-cleavage was 0.19.

For C3G C8G C23G, the self-cleavage was found to be 0.17.

As to C3G A6G C10G A14U G36A G44C, the self-cleavage stood at 0.01.

With C3U A4C G7C C13G G19U A26G, the self-cleavage is 0.05.

On to C3U A4U A11C C13A G44U, for which the self-cleavage worked out at 0.02.

As for C3A G33U U43C, the self-cleavage was found to be 0.33.

Consider C3U A4G A11C G21C G35U C46U, for which the self-cleavage amounted to 0.02.

On to C3G G5U A16U G21U, for which the self-cleavage was 0.05.

On to C3G A4C C8A C13A G35A G40A G44C C46U, for which the self-cleavage amounted to 0.04.

Take C3A U32A G35A A39U C45A C46A: the self-cleavage was determined as 0.03.

C3G C8A C13U C31G G33C C37A: the self-cleavage is 0.51.

Take C3G A26G A41C: the self-cleavage turned out to be 0.26.

Take C3G G17A C31G C42G: the self-cleavage was found to be 0.08.

On to C3G A4U A11G G27A, for which the self-cleavage was found to be 0.04.

Turning to C3G G19A C31G, the self-cleavage is 0.06.

Regarding C3U A12U G17U, the self-cleavage is 0.05.

Take C3G G21C G36U: the self-cleavage was 0.1.

With C3G G5U G21A G40U, the self-cleavage came to 0.08.

For the variant C3U A6G G17C G21U C45G, the self-cleavage came out at 0.03.

Consider C3G U9C C13U A16C G29C, for which the self-cleavage was found to be 0.01.

For C3G A14U C15G G30A U34G C37A, the self-cleavage turned out to be 0.05.

Regarding C3A G40C U43G, the self-cleavage was 0.45.

In the case of C3G C13U U38A, the self-cleavage stood at 0.03.

Regarding C3G C13U G17C C18A C23U, the self-cleavage amounted to 0.09.

Take C3G C10G A16U G21A: the self-cleavage is 0.04.

Consider C3G C10A A11C G21A, for which the self-cleavage worked out at 0.01.

As for C3U A6G G7A C8G A24C G40A, the self-cleavage turned out to be 0.44.

For C3U A14G G29U, the self-cleavage worked out at 0.38.

Turning to C3G A16U G40C A41U, the self-cleavage came out at 0.02.

C3G A12C A41C: the self-cleavage worked out at 0.04.

C3G U9A U28G C31G: the self-cleavage stood at 0.32.

For C3G A11G A26U, the self-cleavage stood at 0.01.

For the variant C3U A11G U43C C45U, the self-cleavage is 0.03.

For C3U A4G G40C, the self-cleavage is 0.03.

In the case of C3G C18U G22C, the self-cleavage was determined as 0.37.

For the variant C3U A6C G17A A24U G35A G36U, the self-cleavage turned out to be 0.03.

Take C3U A11C G17U G19C A26U A39G U43C: the self-cleavage stood at 0.01.

On to C3G G5A G29U C46U, for which the self-cleavage stood at 0.22.

Consider C3U A11C A14U A24C G33U, for which the self-cleavage came out at 0.03.

For the variant C3U A6G A14C C18G, the self-cleavage came out at 0.03.

Turning to C3G G5A C15G G17A, the self-cleavage stood at 0.06.

On to C3A U28A G35U C37G C42U, for which the self-cleavage stood at 0.22.

With C3U A4C C42G, the self-cleavage was found to be 0.16.

As to C3A G40U C42G C45G, the self-cleavage is 0.06.

C3G C10U A14C: the self-cleavage worked out at 0.03.

For the variant C3G G30U C37U, the self-cleavage was determined as 2.33.

With C3A U20C G22U G35A C42A, the self-cleavage amounted to 0.05.

In the case of C3G U20C G33U A41U, the self-cleavage came to 0.27.

For C3G C13G A14U G17U A25C, the self-cleavage turned out to be 0.1.

For the variant C3G A12C G17U A25C C42U, the self-cleavage stood at 0.06.

Turning to C3A U9A A11U C37A, the self-cleavage turned out to be 0.08.

As to C3G A4U C10A G36C, the self-cleavage is 0.04.

C3G A6G U9C C10G C42U: the self-cleavage turned out to be 0.01.

Consider C3G G21U G27U G40C, for which the self-cleavage amounted to 0.04.

For the variant C3G C13G A26U G27C, the self-cleavage came to 0.02.

As to C3U A14G C15A U20C, the self-cleavage worked out at 0.09.

As for C3U A6C G22C C23A A26U U28G U32G C46U, the self-cleavage amounted to 0.01.

Turning to C3G C8U A25C A41C U43G, the self-cleavage was found to be 0.24.

With C3A G40C G44U, the self-cleavage is 0.11.

Take C3G A6G U43C: the self-cleavage worked out at 0.04.

Turning to C3G G21A A25C, the self-cleavage turned out to be 0.57.

As to C3A U20A C31A, the self-cleavage was 0.06.

Turning to C3G G19A G22A U43C, the self-cleavage is 0.02.

As for C3U A4C G7A A11C C13G G27C, the self-cleavage was determined as 0.02.

Take C3G C8G G19C U28G G29C C46G: the self-cleavage amounted to 0.01.

On to C3U A11U A39C, for which the self-cleavage is 0.02.

C3G G7C G44U: the self-cleavage is 0.05.

On to C3G A16U G17U C37G C42A, for which the self-cleavage worked out at 0.06.

Regarding C3A U9G C18G A26G, the self-cleavage amounted to 0.1.

Take C3G G21U A24G: the self-cleavage was found to be 0.25.

Regarding C3G C10A C18U A24U U43C, the self-cleavage was 0.03.

Take C3U A4U C18A U20G G36C C42A: the self-cleavage amounted to 0.03.

In the case of C3G G19A U20G G33A, the self-cleavage stood at 0.09.

Regarding C3U A4C U9A C18G A26U G33U, the self-cleavage was 0.08.

Turning to C3U A11C G27U C31G, the self-cleavage came out at 0.

As to C3G C15A C23A C37U, the self-cleavage was 0.14.

Consider C3G A26G A41U C46A, for which the self-cleavage was 0.17.

Regarding C3G C13A A14G G33U, the self-cleavage was found to be 0.16.

With C3G A14G G21A A25G, the self-cleavage was determined as 0.69.

For C3G A11G G22A G33U, the self-cleavage is 0.03.

For the variant C3G G33U C42U, the self-cleavage was determined as 0.06.

Consider C3G C10A G17U, for which the self-cleavage is 0.03.

As for C3G G21U U43A, the self-cleavage was found to be 0.2.

As to C3G C10G U43A, the self-cleavage was 0.

C3G A6G U28A G29U C31U U34A G35U A39G: the self-cleavage amounted to 0.02.

Turning to C3U A6C G40C, the self-cleavage turned out to be 0.04.

With C3A U38G A39G, the self-cleavage is 0.05.

For the variant C3G G5U C13G G22U, the self-cleavage came out at 0.85.

In the case of C3G C15G U34A G44U, the self-cleavage is 0.03.

As to C3G A14G U38C, the self-cleavage was found to be 0.14.

Regarding C3G G29C C45U, the self-cleavage was found to be 0.23.

As for C3G C18A C37G, the self-cleavage was determined as 0.03.

Consider C3U A4U G7U U9G C18G G27C G29U G33C G44A, for which the self-cleavage worked out at 0.2.

Regarding C3A G29U C37A G44U, the self-cleavage came to 0.09.

For the variant C3G A6G A11G C13A G27C, the self-cleavage was 0.02.

As for C3U A6U A12G U32A, the self-cleavage is 0.06.

On to C3G G7C C15U A39U U43G, for which the self-cleavage came out at 0.

Turning to C3G C13G A14C, the self-cleavage was found to be 0.82.

As for C3G A11U C13A U32G, the self-cleavage stood at 0.05.

As for C3G C13U G44A, the self-cleavage stood at 0.2.

For the variant C3G A4G G7U G27A U28G G33U, the self-cleavage was found to be 0.03.

As to C3U A6C A12G G30U, the self-cleavage amounted to 0.

Take C3G A4C A6G C31G: the self-cleavage was 0.13.

Turning to C3U A11C C15U U20G A24U, the self-cleavage came out at 0.01.

Regarding C3G A11U A26C G30C, the self-cleavage is 0.03.

As to C3G G7A C10A C15A A41G, the self-cleavage was determined as 0.05.

As for C3G C23U A25G C42A, the self-cleavage amounted to 0.05.

Regarding C3U A6U U9C A12U, the self-cleavage turned out to be 0.02.

As to C3G A6U A12G G30A, the self-cleavage is 0.23.

In the case of C3G A16C G17C C23U G40A, the self-cleavage was determined as 0.11.

Turning to C3G A6C G7U, the self-cleavage amounted to 0.25.

Turning to C3G C10A G17U U20C A25C, the self-cleavage was 0.03.

Take C3G C15A G35U: the self-cleavage amounted to 0.11.

C3G G5C C13U G30U G36U G40A: the self-cleavage amounted to 0.42.

Regarding C3G C31G A39C C45U, the self-cleavage stood at 0.02.

As for C3A G30U U34C G35A, the self-cleavage was 0.07.

C3U A6G G22C C31U G36U: the self-cleavage turned out to be 0.02.

With C3U A11C C18G G29A, the self-cleavage worked out at 0.04.

Take C3G A25C G27C G44C: the self-cleavage amounted to 0.52.

On to C3G C8G A14G A24G A26U, for which the self-cleavage is 0.28.

Turning to C3U A6C A12U C42G, the self-cleavage was found to be 0.03.

Turning to C3A G35A A39C U43C G44U, the self-cleavage came out at 0.04.

Regarding C3G C8A C42A, the self-cleavage worked out at 0.03.

For the variant C3A U9C C18A, the self-cleavage came to 0.07.

With C3G A6U C31A G33U, the self-cleavage amounted to 0.05.

As for C3G U20C G35C, the self-cleavage came to 0.1.

For C3G A12G A16C C23G G30U C37A, the self-cleavage was determined as 0.02.

As for C3G A26C G33A, the self-cleavage worked out at 0.1.

For the variant C3A G36C G40A, the self-cleavage is 0.32.

Turning to C3U A6C U20A G27A, the self-cleavage was 0.49.

Turning to C3G C13U A16U A25G G27A C37U, the self-cleavage was found to be 0.

For the variant C3G U38A A41U, the self-cleavage stood at 0.13.

With C3G A26U G40C, the self-cleavage worked out at 0.06.

In the case of C3G G7U G36A G40C, the self-cleavage amounted to 1.89.

For the variant C3G G19U C42A C46A, the self-cleavage stood at 0.18.

In the case of C3G C13A A25U U43A, the self-cleavage worked out at 0.06.

For C3G U9G C23U G27C, the self-cleavage amounted to 0.98.

Regarding C3G G5A A25U, the self-cleavage turned out to be 0.2.

As for C3G G7C C8G U9A C10A, the self-cleavage was determined as 0.02.

Regarding C3G G22C C31U A39C, the self-cleavage amounted to 0.02.

Consider C3G C10G C15A G27A, for which the self-cleavage is 0.01.

As for C3G C18U G33C, the self-cleavage came out at 0.06.

As for C3U A6G C18G G22U C42U C46A, the self-cleavage is 0.18.

For the variant C3G G17U C23A A25G G36U C46A, the self-cleavage amounted to 0.09.

C3U A4C A25C G40C G44C: the self-cleavage worked out at 0.03.

As for C3G C13A G35U, the self-cleavage stood at 1.38.

On to C3A U20C C45G, for which the self-cleavage was 0.11.

On to C3G G21C G29C U32A C42A, for which the self-cleavage came out at 0.1.

Turning to C3A U9G A14G U34A, the self-cleavage amounted to 0.24.

On to C3G A26G C42A, for which the self-cleavage came to 0.16.

With C3G A14C G19U, the self-cleavage was found to be 0.01.

As to C3G G5U A24G, the self-cleavage turned out to be 0.16.

Turning to C3A G33C G35A, the self-cleavage was determined as 0.09.

Take C3G G5U G22A G35U C37A C42U: the self-cleavage amounted to 1.54.

Consider C3G A4C G40A, for which the self-cleavage worked out at 0.02.

In the case of C3G A25C A26G U28G, the self-cleavage turned out to be 0.03.

With C3U A6U C45G, the self-cleavage was found to be 0.09.

For the variant C3G A6U A11G G19A G36U, the self-cleavage is 0.02.

On to C3A U32C C37A C46U, for which the self-cleavage was 0.2.

With C3A U20G U38A, the self-cleavage stood at 0.06.

In the case of C3U A12G C18G, the self-cleavage turned out to be 0.01.
